# In PubChem BioAssay AID463173 (ICCB-Longwood Screening Facility, Harvard Medical School, 2010):
# In all, about 52,000 compounds went through this assay and about 1,700 (3.3%) were called active. Rule as the data show it: active = survival mostly below about 52% (no sharp cut-off); inactive = mostly above about 56%. This is one part of the list.
# Test system: Wild type
# Experiment: S. aureus survival, RN4220 and DeltatarO strains – OD600, teichoic acid synthesis inhibitors, primary screen (AID 463173)
# Conditions: S. aureus RN4220 wild type/DeltatarO growth, OD600, 18 h, active compounds read low, screened at 18.75 µg/mL (by protocol)
row,SMILES,survival
1,CCOc1ccc(-c2nnc(SCC(=O)N(CC)c3cccc(C)c3)o2)cc1,inactive: 78%
2,O=C(Cn1c(=O)n(-c2ccccc2Cl)c(=O)c2sc3ccccc3c21)NC1CCCC1,inactive: 88%
3,CCCN(CCC)C(=O)Cn1c(=O)n(-c2ccc(Cl)c(Cl)c2)c(=O)c2c(C)c(C(=O)N(C)C)sc21,inactive: 82%
4,CCN(CC)S(=O)(=O)c1ccc(NC(=O)c2ccccc2)cc1,inactive: 104%
5,CCOc1ccc(OCC)c(NC(=O)C2CCCN(S(=O)(=O)c3ccc(C)cc3)C2)c1 (centres undefined),inactive: 77%
6,COc1ccc(-c2c(C)nn3c(N4CCN(c5cc(Cl)ccc5C)CC4)cc(C)nc23)cc1OC,inactive: 81%
7,Cc1ccn2c(Nc3ccc4c(c3)OCCO4)c(-c3ccc(N(C)C)cc3)nc2c1,inactive: 74%
8,COc1ccccc1CNC(=O)CSc1cc(C)[nH]c(=O)n1,inactive: 78%
9,CC1=C(c2ccc(C(C)C)cc2)S(=O)(=O)NC1=NCc1ccc(Cl)cc1,inactive: 99%
10,COCCCNC(=O)C1CCN(c2nc3ccc(Cl)cc3[nH]2)CC1,inactive: 128%
11,Cc1sc2ncn(CC(=O)N3CCN(c4ccccc4)CC3)c(=O)c2c1S(=O)(=O)N1CCC(C)CC1,inactive: 99%
12,CCOC(=O)c1ccccc1NC(=O)c1nn(-c2ccc(OC)c(Cl)c2)c(=O)c2c1c1ccccc1n2C,inactive: 85%
13,Cc1ccc(CNC(=O)CCCc2nnc3n(CC(C)C)c(=O)c4sccc4n23)cc1,inactive: 101%
14,CCc1ccc2occ(CC(=O)Nc3ccc(C)c(C)c3)c2c1,inactive: 102%
15,O=C(CN1C(=O)CSc2ccc(S(=O)(=O)N3CCCC3)cc21)NCc1ccc(F)cc1Cl,inactive: 85%
16,O=c1c2nncn2ccn1-c1ccc(F)c(F)c1,inactive: 67%
17,O=C(c1cc2cc3ccc(Cl)cc3nc2o1)N1CCN(c2cccc(Cl)c2)CC1,inactive: 58%
18,CCN(CC)C(=O)C1CCCN(c2ncnc3c2c(-c2ccccc2)cn3-c2cccc(C)c2)C1 (centres undefined),inactive: 71%
19,Cc1cccc(NC(=O)N2CC=C(c3c[nH]c4ccccc34)CC2)c1C,inactive: 73%
20,Cc1ccc(Cl)cc1Nc1nn2c(=O)c3ccc(C(=O)NC4CCCCC4)cc3nc2s1,inactive: 124%
21,CCCSc1ncnc2c1c(-c1ccccc1)cn2-c1ccccc1OC,active: 1%
22,COc1ccc(OC)c(NC(=O)CS(=O)(=O)Cc2nc(-c3ccc(C)cc3)oc2C)c1,inactive: 84%
23,CCOc1ccc2c(c1)c(=O)c(S(=O)(=O)c1ccc(CC)cc1)cn2Cc1cccc(Cl)c1,inactive: 82%
24,CCc1cccc(C)c1NC(=O)Cn1ncc2c3ccccc3n(Cc3ccccc3)c2c1=O,inactive: 94%
25,COc1ccc(-c2cn3nc(SCC(=O)Nc4cc(C)cc(C)c4)ccc3n2)cc1,inactive: 68%
26,CN(C)c1ccc(CNC23CN4CN(CN(C4)C2)C3)cc1,inactive: 107%
27,CCOc1ccc(OCC)c(NC(=O)c2cc(-c3cccs3)nc3ccccc23)c1,inactive: 99%

row,SMILES,survival
1,CCn1c(SC)nnc1C1CCCN(C(=O)Cc2cccnc2)C1 (centres undefined),inactive: 89%
2,COc1ccc(CNC(=O)c2ccc(CS(=O)(=O)c3ccc(Br)cc3)o2)cc1,inactive: 80%
3,CCCCOC(=O)c1ccc(Nc2nc3ccc(C(=O)c4ccccc4)cc3n3cnnc23)cc1,inactive: 53%
4,O=c1c2sccc2n(Cc2cc(=O)n3cc(Cl)ccc3n2)c(=O)n1-c1ccccc1,inactive: 81%
5,O=c1c(N2CCN(c3cccc(Cl)c3)CC2)csc2ccc(Cl)cc12,inactive: 148%
6,O=C1CCSc2ccc(S(=O)(=O)Nc3cccc(C(F)(F)F)c3)cc2N1,active: -4%
7,CCOC(=O)c1[nH]c(C)c(CCC(=O)Nc2cc(Cl)c(OC)cc2OC)c1C,inactive: 127%
8,CS(=O)(=O)N(CC(=O)N1CCCCCC1)c1cc(Cl)cc(Cl)c1,inactive: 103%
9,Cc1ccc(CCNC(=O)c2ccc3c(c2)N(Cc2ccc(F)cc2)CCS3)cc1,inactive: 87%
10,CCC(C)NC(=O)c1cn(CC)c2ccc(S(=O)(=O)N3CCc4ccccc4C3)cc2c1=O (centres undefined),inactive: 40%
11,Cc1cc(C)c(NC(=O)Cn2c(=O)n(CC(=O)NCCc3ccccc3)c(=O)c3ccccc32)c(C)c1,inactive: 93%
12,O=C(NCc1ccccc1Cl)c1ccc2c(c1)N(Cc1ccccc1)CCS2,inactive: 100%
13,O=C(CSc1nc2ccccc2n1Cc1cccc(F)c1)N1CCN(c2ccc(F)cc2)CC1,inactive: 72%
14,O=C(NC1CCCCCC1)c1ccc(CS(=O)c2cccc(Cl)c2)o1 (centres undefined),inactive: 104%
15,Cc1nc(-c2ccc(C)c(S(=O)(=O)N3CCC(C(=O)NCc4ccc(F)cc4)CC3)c2)no1,inactive: 85%
16,Cc1cccc(-n2nnc(-c3nc(-c4cccs4)no3)c2N)c1,inactive: 102%
17,Cc1ccc(C)c(CNC(=O)CN2C(=O)CSc3ccc(S(=O)(=O)N(C)C)cc32)c1,inactive: 85%
18,O=S(=O)(c1ccc2nc(Nc3ccc(F)cc3)ccc2c1)N1CCCC1,inactive: 83%
19,Cc1cc(N2CCC(C)CC2)nc2ccc(NC(=O)CCC(=O)N3CCN(c4ccccc4F)CC3)cc12,inactive: 70%
20,CCc1ccc(NC(=O)Cn2c(=O)n(CCc3ccccc3)c(=O)c3sc4ccccc4c32)cc1,inactive: 90%
21,CC(=O)c1cccc(N2C(=O)CN(S(C)(=O)=O)CC2(C)C(=O)NC2CCCC2)c1 (centres undefined),inactive: 85%
22,COc1ccc(S(=O)(=O)N(CCc2ccccc2)CC(=O)Nc2cc(C)cc(C)c2)cc1OC,inactive: 69%
23,Cc1ccc(C)c2[nH]c(=O)c(CN(CCN3CCCC3)C(=O)Nc3cccc(Cl)c3)cc12,inactive: 106%
24,COc1ccccc1N1CCN(S(=O)(=O)CCNC(=O)C(c2ccccc2)c2ccccc2)CC1,inactive: 71%
25,O=C(NC1CCCCC1)c1ccc2c(c1)N(Cc1cccc(Cl)c1)C(=O)c1ccccc1S2=O (centres undefined),inactive: 78%
26,CCc1ccc(NC(=O)c2sc3nc(C)cc(C)c3c2NC(=O)c2ccccc2OC)cc1,inactive: 77%
27,CCN(Cc1ccccc1)C(=O)CCS(=O)(=O)c1ccc2c(c1)CCN2C(C)=O,inactive: 84%
